58 compounds from PubChem BioAssay AID360 (National Center for Advancing Translational Sciences (NCATS), 2006) can be followed below.

Among all 48,000 compounds or so, about 550 (1.1%) were called active. Roughly 4% stayed inconclusive and do not appear here. Rule as the data show it: active = potency below about 15 µM; inconclusive = mostly about 16 µM to 33 µM; inactive = weaker than that. The list shows a part of the results.
Potency is read from the fitted curve at half-maximal effect.

This assay concerns the target Lysosomal acid glucosylceramidase (Homo sapiens) (UniProt P04062). The experiment in a line: Glucocerebrosidase.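 Also: the screen sought inhibitors.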 The note with it: purified enzyme, resorufin glucoside fluorescence (screen aimed at inhibitors), 20 min. An outline of the steps: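 Compounds titrated against 0.2 nM normal enzyme, 30 uM resorufin beta-D-glucopyranoside substrate, citrate/phosphate buffer with taurocholate and tween-20, pH 5.9. Reaction ran 20 min at room temperature; fluorescence (Ex 548/Em 600) gave AC50.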
Sequence of UniProt P04062 (P04062 whole entry, looked up): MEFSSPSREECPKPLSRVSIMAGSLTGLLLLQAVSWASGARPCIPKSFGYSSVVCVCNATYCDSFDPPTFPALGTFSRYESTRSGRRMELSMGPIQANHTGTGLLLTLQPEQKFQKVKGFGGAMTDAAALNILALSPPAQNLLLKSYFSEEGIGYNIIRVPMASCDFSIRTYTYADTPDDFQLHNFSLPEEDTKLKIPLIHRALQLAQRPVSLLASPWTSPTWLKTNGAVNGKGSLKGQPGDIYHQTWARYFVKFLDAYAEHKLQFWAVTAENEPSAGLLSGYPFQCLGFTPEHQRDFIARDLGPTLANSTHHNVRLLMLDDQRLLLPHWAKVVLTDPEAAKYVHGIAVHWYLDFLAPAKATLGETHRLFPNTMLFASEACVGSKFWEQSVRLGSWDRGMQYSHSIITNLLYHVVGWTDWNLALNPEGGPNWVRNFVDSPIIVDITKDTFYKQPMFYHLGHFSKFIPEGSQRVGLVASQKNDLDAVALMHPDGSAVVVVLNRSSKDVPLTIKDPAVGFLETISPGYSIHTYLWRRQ
On to `CC(C)(C)NC(=O)c1ccc2c(c1)N(CC(=O)N1CCN(c3ccc(F)cc3)CC1)C(=O)C(C)(C)O2`, for which the Potency is inactive: > 76.9 µM.
In the case of `N#CCCn1c(-c2nonc2NC(=O)c2ccccc2Cl)nc2ccccc21`, the Potency is inactive: > 76.9 µM.
For `COCCNC(=O)c1ccc(NS(C)(=O)=O)cc1` the value was inactive: > 76.9 µM; for `Cc1cc(C)c(NC(=O)CS(=O)CC(=O)NCC2CCCO2)c(C)c1` (stereo not drawn), inactive: > 76.9 µM; for `CC(=O)NCC(=O)N(c1c(C)n(C)n(-c2ccccc2)c1=O)C1(C(=O)NC2CCCC2)CCCCC1`, inactive: > 76.9 µM.
For `Cc1nc(SCC(=O)O)c2oc3ccccc3c2n1` the value was inactive: > 76.9 µM; for `CNC(=O)C1=NCCCc2cc(OC)c(OC)cc21`, inactive: > 76.9 µM.
The figure for `O=C(O)CN1C(=O)CC(Cc2ccc(Cl)cc2)C1=O` (stereo not drawn) is inactive: > 76.9 µM; for `O=C(CSc1nc2ccccc2o1)Nc1nc2c(s1)CCCC2` it is inactive: > 76.9 µM.
On to `O=C(O)c1n[nH]c2ccccc12`, for which the Potency was inactive: > 76.9 µM.
The figure for `Cc1cc(NS(=O)(=O)c2ccc(NC(=O)c3ccoc3C)cc2)nc(C)n1` is inactive: > 76.9 µM; for `O=S(=O)(Nc1nc2ccccc2nc1NCc1ccco1)c1ccccc1` it is inactive: > 76.9 µM.
The figure for `O=C(Nc1ncnc2c1CCC2)C12CC3CC(CC(C3)C1)C2` is inactive: > 76.9 µM; for `Cc1nnc(NC(=O)CCSc2ccccc2)s1` it is inactive: > 76.9 µM.
The figure for `Cc1nc(-c2ccc(NS(C)(=O)=O)cc2)cs1` is inactive: > 76.9 µM.
On to `O=C(c1ccco1)c1cn(CC(=O)N2CCCc3ccccc32)c2ccccc12`, for which the Potency is inactive: > 76.9 µM.
The figure for `CC(=O)c1cc2c(cc1NC(=O)Nc1cccc(Cl)c1)OCCO2` is inactive: > 76.9 µM.
For `CC(C)CCN1C(=O)CCC1(C)C(=O)NC1CCCCCC1` (stereo not drawn) the value was inactive: > 76.9 µM.
Consider `CCOC(=O)C1=C(C)OC(N)=C(C#N)C1c1c(C)nn(-c2ccc(C)cc2)c1Cl` (stereo not drawn), for which the Potency is inactive: > 76.9 µM.
For `Cc1ccc(-c2nnn(CC(=O)N(CCO)C(C(=O)NC(C)(C)C)c3ccncc3)n2)cc1` (stereo not drawn) the value was inactive: > 76.9 µM; for `CCC(=O)Nc1ccc2nc(C3CC3)n(Cc3ccccc3)c(=O)c2c1`, inactive: > 76.9 µM.
For `CSc1nnc(-c2ccc(NC(=O)CCc3ccccc3)cc2)n1C` the value was inactive: > 76.9 µM.
Take `CC(=O)/C(C(=N)N1CCN(c2cccc(Cl)c2)CC1)=C(\C)O`: the Potency is inactive: > 76.9 µM.
For `CC(=O)Oc1ccc(Oc2ccc(-c3noc(C)n3)cc2)cc1`, the Potency was inactive: > 76.9 µM.
The figure for `Cc1cc(C)nc(SCCn2c(N3CCC(C)CC3)nc3c2c(=O)n(C)c(=O)n3C)n1` is inactive: > 76.9 µM.
For `OC12CCCCC1C(c1ccc3c(c1)OCO3)N(Cc1ccccc1F)CC2` (stereo not drawn) the value was inactive: > 76.9 µM; for `O=C(CN1CCCCCC1)Nc1cccc2c1OCO2`, inactive: > 76.9 µM; for `Cc1cc(NC(=O)C2CCN(S(=O)(=O)Cc3ccccc3)CC2)ccc1-n1cnnn1`, “inactive”.
The figure for `COCCCNC(=O)c1ccccc1NS(C)(=O)=O` is inactive: > 76.9 µM; for `Cc1ccc(C(=O)N2CCN(C(=O)CN3CCCC3)C2)cc1` it is inactive: > 76.9 µM; for `O=C(CN1CCN(CC(=O)Nc2ccccc2Cl)CC1)Nc1ccc2c(c1)OCCO2` it is inactive: > 76.9 µM.
On to `O=C(COC(=O)CCC(=O)Nc1nccs1)NCc1ccco1`, for which the Potency is inactive: > 76.9 µM.
For `COc1ccc2cc3cc(C(=O)NCc4ccc5c(c4)OCO5)oc3nc2c1` the value was inactive: > 76.9 µM.
Consider `O=C(NCc1cccs1)c1nc2c(nnn2Cc2ccccc2Cl)c(=O)[nH]1`, for which the Potency is inactive: > 76.9 µM.
`COc1ccc(C(=O)Oc2cccnc2)cc1OC`: the Potency is inactive: > 76.9 µM.
As for `Cn1c(N2CCCC2)nc2c1c(=O)n(Cc1ccc(Cl)cc1)c(=O)n2C`, the Potency is inactive: > 76.9 µM.
The figure for `COc1ccc2c(c1OC)C(=O)N(c1ncn[nH]1)C2` is inactive: > 76.9 µM; for `O=C1CC(CCC(=O)NC2CC2)c2ccccc2N1` (stereo not drawn) it is inactive: > 76.9 µM; for `CCOc1ccccc1-n1c(SCC(=O)N(CC)CC)nnc1-c1ccccn1` it is inactive: > 76.9 µM.
The figure for `CCOC(=O)N1CCN(C(=O)c2ccccc2N(C)S(C)(=O)=O)CC1` is inactive: > 76.9 µM; for `CCN(CC)S(=O)(=O)c1ccc(OC(C)C)nc1` it is inactive: > 76.9 µM.
The figure for `O=C(Cc1ccccc1)Nc1ccccc1N1CCN(c2ccccc2)CC1` is inactive: > 76.9 µM; for `CC(=O)N(Cc1cc2ccc(C)c(C)c2n2nnnc12)C1CCCC1` it is inactive: > 76.9 µM.
`COc1ccccc1NC(=O)COC(=O)CNC(=O)c1ccc(OC)c(OC)c1`: the Potency was inactive: > 76.9 µM.
With `CCCc1nc(SCC(=O)Nc2cc(C)on2)c2ccccc2n1`, the Potency is inactive: > 76.9 µM.
The figure for `CCCn1nnc(NC(=O)c2cc3ccccc3o2)n1` is inactive: > 76.9 µM; for `Cc1ccc(C(=O)Nc2ccc(O)c(C(=O)O)c2)o1` it is inactive: > 76.9 µM; for `CCOC(=O)CSc1nnc2n1C(C)(C)Cc1ccccc1-2` it is inactive: > 76.9 µM.
The figure for `Cn1c(=O)c2c(ncn2CC(O)CNc2ccc(Cl)cc2)n(C)c1=O` (stereo not drawn) is inactive: > 76.9 µM; for `O=C(CCCn1c(=O)oc2ccccc21)Nc1cccnc1` it is inactive: > 76.9 µM.
The figure for `COc1cccc(-n2c(SCC(=O)O)nnc2-c2cccnc2)c1` is inactive: > 76.9 µM.
For `Cc1csc(NC(=O)CSc2nnc(-c3ccco3)n2C)n1`, the Potency is inactive: > 76.9 µM.
For the compound `COc1cccc(C(=O)N(Cc2cc3cc(C)ccc3[nH]c2=O)CC2CCCO2)c1` (stereo not drawn), the Potency is inactive: > 76.9 µM.
The figure for `O=C(COC(=O)c1ccccc1F)c1ccc(-n2nncc2-c2ccco2)cc1` is inactive: > 76.9 µM; for `O=C(Nc1ccccn1)c1cc(-n2cnnc2)ccc1Cl` it is inactive: > 76.9 µM.
The figure for `O=C(c1ccc2c(c1)OCCO2)C1CCN(S(=O)(=O)c2ccccc2F)CC1` is inactive: > 76.9 µM; for `CC1CCCN(c2nc3ccccc3nc2C(C#N)C(=O)OC2CCCCC2)C1` (stereo not drawn) it is inactive: > 76.9 µM; for `Cc1nc(C)c(C(=O)C2=C(O)C(=O)N(CCN3CCOCC3)C2c2cccnc2)s1` (stereo not drawn) it is inactive: > 76.9 µM.
